Drawing on patent publication US20230310557A1, this text covers cell viability IC50 (Cell Titer Glo, 72 h), WSU-NHL cells and cell viability IC50 (Cell Titer Glo, 72 h), JEKO cells for five molecules.

Assay [1] addresses T1, CD20 on WSU-NHL cells (human) (UniProt P11836).
T1 sequence: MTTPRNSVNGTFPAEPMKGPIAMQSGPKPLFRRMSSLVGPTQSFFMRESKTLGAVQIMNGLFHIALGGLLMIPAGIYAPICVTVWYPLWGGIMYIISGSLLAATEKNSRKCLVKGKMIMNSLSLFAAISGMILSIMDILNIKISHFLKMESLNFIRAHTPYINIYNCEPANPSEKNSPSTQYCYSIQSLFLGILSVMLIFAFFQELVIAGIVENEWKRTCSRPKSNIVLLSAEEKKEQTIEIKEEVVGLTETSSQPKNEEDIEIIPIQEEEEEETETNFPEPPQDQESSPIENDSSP
Briefly: cell-based or functional assay.

Assay [2] has as its target CD79b on target cells (JEKO, OCY-LY3, BJAB, WSU-DLCL2) (human) (UniProt P40259). Description: cell-based or functional assay.
Chain of UniProt P40259 (P40259 29-229): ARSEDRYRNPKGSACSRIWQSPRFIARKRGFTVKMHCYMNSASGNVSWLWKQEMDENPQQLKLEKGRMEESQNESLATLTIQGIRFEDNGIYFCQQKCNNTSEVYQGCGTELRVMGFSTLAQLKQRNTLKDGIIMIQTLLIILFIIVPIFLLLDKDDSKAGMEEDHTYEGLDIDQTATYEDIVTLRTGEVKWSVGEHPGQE

B1: ATB 676 (antibody)
heavy: QVQLQQPGAELVKPGASVKMSCKASGYTFTSYNMHWVKQTPGRGLEWIGAIYPGNGDTSYNQKFKGKATLTADKSSSTAYMQLSSLTSEDSAVYYCARSTYYGGDWYFNVWGAGTTVTVSA[human IgG1 constant region not written out]GGSADTVICEPHQDTETGKIKKFKVDVGVAEDQAKKAGLTTGKSGDPHRYMNGDKINFGIHNCDKEGAILWEYPIYWVGKKAEWMKDEKTDRQPGGPTPIRVVYANNNGNIVYCGVMTHAVVKSNNQGEKFFLKCT
light: QIVLSQSPAILSASPGEKVTMTCRASSSVSYIHWFQQKPGSSPKPWIYATSNLASGVPVRFSGSGSGTSYSLTISRVEAEDAATYYCQQWTSNPPTFGGGTKLEIKRTVAAPSVFIFPPSDEQLKSGTASVVCLLNNFYPREAKVQWKVDNALQSGNSQESVTEQDSKDSTYSLSSTLTLSKADYEKHKVYACEVTHQGLSSPVTKSFNRGEC
The molecule B1 had a cell viability IC50 (Cell Titer Glo, 72 h), WSU-NHL cells in assay [1] of 0.0376 nM.

B2: ATB 680 (antibody)
heavy: QVQLQQPGAELVKPGASVKMSCKASGYTFTSYNMHWVKQTPGRGLEWIGAIYPGNGDTSYNQKFKGKATLTADKSSSTAYMQLSSLTSEDSAVYYCARSTYYGGDWYFNVWGAGTTVTVSA[human IgG1 constant region not written out]RRRKRSLDTSADTVICEPHQDTETGKIKKFKVDVGVAEDQAKKAGLTTGKSGDPHRYMNGDKINFGIHNCDKEGAILWEYPIYWVGKKAEWMKDEKTDRQPGGPTPIRVVYANNNGNIVYCGVMTHAVVKSNNQGEKFFLKCT
light: QIVLSQSPAILSASPGEKVTMTCRASSSVSYIHWFQQKPGSSPKPWIYATSNLASGVPVRFSGSGSGTSYSLTISRVEAEDAATYYCQQWTSNPPTFGGGTKLEIKRTVAAPSVFIFPPSDEQLKSGTASVVCLLNNFYPREAKVQWKVDNALQSGNSQESVTEQDSKDSTYSLSSTLTLSKADYEKHKVYACEVTHQGLSSPVTKSFNRGEC
In assay [1], B2 registered a cell viability IC50 (Cell Titer Glo, 72 h), WSU-NHL cells of 0.0191 nM.

B3: ATB 302 (Fc fusion)
chain: EVQLVESGGGLVQPGGSLRLSCAASGYTFSSYWIEWVRQAPGKGLEWIGEILPGGGDTNYNEIFKGRATFSADTSKNTAYLQMNSLRAEDTAVYYCTRRVPIRLDYWGQGTLVTVSSGGGGSGGGGSGGGGSDIQLTQSPSSLSASVGDRVTITCKASQSVDYEGDSFLNWYQQKPGKAPKLLIYAASNLESGVPSRFSGSGSGTDFTLTISSLQPEDFATYYCQQSNEDPLTFGQGTKVEIKAS[human IgG1 Fc and a few adjoining residues not written out]GGSAPIVTCRPKLDGREKPFKVDVATAQAQARKAGLTTGKSGDPHRYFAGDHIRWGVNNCDKADAILWEYPIYWVGKNAEWAKDVKTSQQKGGPTPIRVVYANSRGAVQYCGVMTHSKVDKNNQGKEFFEKCD
B3 returned a cell viability IC50 (Cell Titer Glo, 72 h), JEKO cells in assay [2] of 1.11 nM.

B4: ATB 206 (Fc fusion)
chain: QIVLSQSPAILSASPGEKVTMTCRASSSVSYIHWFQQKPGSSPKPWIYATSNLASGVPVRFSGSGSGTSYSLTISRVEAEDAATYYCQQWTSNPPTFGGGTKLEIKGGGGSGGGGSGGGGSQVQLQQPGAELVKPGASVKMSCKASGYTFTSYNMHWVKQTPGRGLEWIGAIYPGNGDTSYNQKFKGKATLTADKSSSTAYMQLSSLTSEDSAVYYCARSTYYGGDWYFNVWGAGTTVTVSAAS[human IgG1 Fc and a few adjoining residues not written out]GGSAVTWTCLNDQKNPKTNKYETKRLLYNQNKAESNSHHAPLSDGKTGSSYPHWFTNGYDGDGKLPKGRTPIKFGKSDCDRPPKHSKDGNGKTDHYLLEFPTFPDGHDYKFDSKKPKENPGPARVIYTYPNKVFCGIIAHTKENQGELKLCSH
Turning to B4, the cell viability IC50 (Cell Titer Glo, 72 h), WSU-NHL cells in assay [1] worked out at 0.0367 nM.

B5: ATB 301 (Fc fusion)
chain: EVQLVESGGGLVQPGGSLRLSCAASGYTFSSYWIEWVRQAPGKGLEWIGEILPGGGDTNYNEIFKGRATFSADTSKNTAYLQMNSLRAEDTAVYYCTRRVPIRLDYWGQGTLVTVSSGGGGSGGGGSGGGGSDIQLTQSPSSLSASVGDRVTITCKASQSVDYEGDSFLNWYQQKPGKAPKLLIYAASNLESGVPSRFSGSGSGTDFTLTISSLQPEDFATYYCQQSNEDPLTFGQGTKVEIKAS[human IgG1 Fc and a few adjoining residues not written out]GGSADTVICEPHQDTETGKIKKFKVDVGVAEDQAKKAGLTTGKSGDPHRYMNGDKINFGIHNCDKEGAILWEYPIYWVGKKAEWMKDEKTDRQPGGPTPIRVVYANNNGNIVYCGVMTHAVVKSNNQGEKFFLKCT
For B5, in assay [2], the cell viability IC50 (Cell Titer Glo, 72 h), JEKO cells came out at 0.103 nM.
